Measurements: the supplement of paper PMC4967469

Compound: COc1ncc(-c2ccc3nccc(-c4ccnnc4)c3c2)cc1NS(=O)(=O)c1ccc(F)cc1F [GSK2126458]
Assay: Viability of human cancer cell lines after 72 h of drug (GDSC screen)
Conditions: top dose inferred
Description: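 Human cancer cell lines in 384-well plates, medium with 10% serum, drug for 72 h over a 256-fold dose range (nine 2-fold or five 4-fold steps up to the top dose). Adherent lines were fixed and stained with the nucleic acid dye Syto60, suspension lines read with resazurin; signal relative to control wells, capped at 0 and 100%. One two-parameter sigmoid per drug and line, fitted in a mixed model over all curves with the slope shared within a line.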

NCI-H446 (small cell lung carcinoma, semi-adherent, top dose 0.128 µM)
AUC: 0.474 | IC50: 6.77 nM

NCI-H460 (large cell lung carcinoma, adherent, top dose 0.128 µM)
AUC: 0.986 | IC50: > 128 nM

NCI-H510A (small cell lung carcinoma, semi-adherent, top dose 0.128 µM)
AUC: 0.954 | IC50: > 128 nM

NCI-H520 (lung squamous cell carcinoma, adherent, top dose 0.128 µM)
AUC: 0.477 | IC50: 6.91 nM

NCI-H522 (lung adenocarcinoma, adherent, top dose 0.128 µM)
AUC: 0.938 | IC50: > 128 nM

NCI-H524 (small cell lung carcinoma, suspension, top dose 0.128 µM)
AUC: 0.769 | IC50: 43.5 nM

NCI-H526 (small cell lung carcinoma, suspension, top dose 0.128 µM)
AUC: 0.784 | IC50: 52 nM

NCI-H596 (lung adenocarcinoma, adherent, top dose 0.128 µM)
AUC: 0.522 | IC50: 9.34 nM

NCI-H630 (large intestine, adherent, top dose 1.024 µM)
AUC: 0.893 | IC50: > 1020 nM

NCI-H647 (non-small cell lung carcinoma, adherent, top dose 0.128 µM)
AUC: 0.514 | IC50: 8.77 nM

NCI-H650 (lung adenocarcinoma, adherent, top dose 0.128 µM)
AUC: 0.722 | IC50: 36.6 nM

NCI-H661 (large cell lung carcinoma, adherent, top dose 0.128 µM)
AUC: 0.803 | IC50: 79.5 nM

NCI-H716 (large intestine, suspension, top dose 1.024 µM)
AUC: 0.633 | IC50: 164 nM

NCI-H720 (lung carcinoid, suspension, top dose 0.128 µM)
AUC: 0.987 | IC50: > 128 nM

NCI-H727 (lung carcinoid, adherent, top dose 0.128 µM)
AUC: 0.778 | IC50: 92.7 nM

NCI-H747 (large intestine, adherent, top dose 1.024 µM)
AUC: 0.199 | IC50: 6.49 nM

NCI-H748 (small cell lung carcinoma, suspension, top dose 0.128 µM)
AUC: 0.865 | IC50: > 128 nM

NCI-H810 (large cell lung carcinoma, adherent, top dose 0.128 µM)
AUC: 0.75 | IC50: 40.4 nM

NCI-H838 (lung adenocarcinoma, adherent, top dose 0.128 µM)
AUC: 0.983 | IC50: > 128 nM

NCI-H841 (small cell lung carcinoma, adherent, top dose 0.128 µM)
AUC: 0.768 | IC50: 47.9 nM

NCI-H847 (small cell lung carcinoma, adherent, top dose 0.128 µM)
AUC: 0.384 | IC50: 4.11 nM

NCI-H1048 (small cell lung carcinoma, adherent, top dose 0.128 µM)
AUC: 0.325 | IC50: 2.75 nM

NCI-H1092 (small cell lung carcinoma, suspension, top dose 0.128 µM)
AUC: 0.874 | IC50: 127 nM

NCI-H1155 (large cell lung carcinoma, suspension, top dose 0.128 µM)
AUC: 0.926 | IC50: > 128 nM

NCI-H1299 (large cell lung carcinoma, adherent, top dose 0.128 µM)
AUC: 0.888 | IC50: > 128 nM

NCI-H1304 (small cell lung carcinoma, suspension, top dose 0.128 µM)
AUC: 0.544 | IC50: 10.7 nM

NCI-H1355 (lung adenocarcinoma, adherent, top dose 0.128 µM)
AUC: 0.945 | IC50: > 128 nM

NCI-H1395 (lung adenocarcinoma, adherent, top dose 0.128 µM)
AUC: 0.881 | IC50: > 128 nM

NCI-H1417 (small cell lung carcinoma, suspension, top dose 0.128 µM)
AUC: 0.684 | IC50: 29.1 nM

NCI-H1435 (lung adenocarcinoma, semi-adherent, top dose 0.128 µM)
AUC: 0.952 | IC50: > 128 nM

NCI-H1436 (small cell lung carcinoma, suspension, top dose 0.128 µM)
AUC: 0.788 | IC50: 64.8 nM

NCI-H1437 (lung adenocarcinoma, adherent, top dose 0.128 µM)
AUC: 0.666 | IC50: 23.7 nM

NCI-H1563 (lung adenocarcinoma, adherent, top dose 0.128 µM)
AUC: 0.71 | IC50: 35.5 nM

NCI-H1568 (lung adenocarcinoma, adherent, top dose 0.128 µM)
AUC: 0.751 | IC50: 51.4 nM

NCI-H1573 (lung adenocarcinoma, adherent, top dose 0.128 µM)
AUC: 0.82 | IC50: 70.9 nM

NCI-H1581 (large cell lung carcinoma, semi-adherent, top dose 0.128 µM)
AUC: 0.857 | IC50: 91.1 nM

NCI-H1623 (lung adenocarcinoma, adherent, top dose 0.128 µM)
AUC: 0.927 | IC50: > 128 nM

NCI-H1648 (lung adenocarcinoma, adherent, top dose 1.024 µM)
AUC: 0.18 | IC50: 6.42 nM

NCI-H1651 (lung adenocarcinoma, adherent, top dose 0.128 µM)
AUC: 0.961 | IC50: > 128 nM

NCI-H1666 (lung adenocarcinoma, semi-adherent, top dose 1.024 µM)
AUC: 0.829 | IC50: 724 nM

NCI-H1688 (small cell lung carcinoma, adherent, top dose 0.128 µM)
AUC: 0.939 | IC50: > 128 nM

NCI-H1693 (lung adenocarcinoma, adherent, top dose 1.024 µM)
AUC: 0.725 | IC50: 419 nM

NCI-H1694 (small cell lung carcinoma, suspension, top dose 0.128 µM)
AUC: 0.82 | IC50: 73.1 nM

NCI-H1703 (lung adenocarcinoma, adherent, top dose 0.128 µM)
AUC: 0.545 | IC50: 10.9 nM

NCI-H1734 (lung adenocarcinoma, adherent, top dose 1.024 µM)
AUC: 0.82 | IC50: 668 nM

NCI-H1755 (lung adenocarcinoma, adherent, top dose 0.128 µM)
AUC: 0.956 | IC50: > 128 nM

NCI-H1770 (non-small cell lung carcinoma, suspension, top dose 0.128 µM)
AUC: 0.968 | IC50: > 128 nM

NCI-H1781 (lung adenocarcinoma, adherent, top dose 0.128 µM)
AUC: 0.719 | IC50: 33.4 nM

NCI-H1792 (lung adenocarcinoma, adherent, top dose 0.128 µM)
AUC: 0.638 | IC50: 18.5 nM

NCI-H1793 (lung adenocarcinoma, adherent, top dose 0.128 µM)
AUC: 0.724 | IC50: 45.6 nM

NCI-H1836 (small cell lung carcinoma, suspension, top dose 0.128 µM)
AUC: 0.828 | IC50: 89.6 nM

Lines with a small IC50 respond at low doses; a fit beyond the top or the lowest dose is shown as a bound at that dose. AUC sums up the same curve from the lowest dose to the 256-fold higher top dose: 1 means no effect, lower means more sensitive. The top dose, if marked as inferred, was derived from the fitted curves, not read from the paper.
